{
  "source": "a collection of fitness landscapes (doi:10.1126/science.1257360)",
  "parents": {"B1": {"name": "PhoQ; a variant is named by its letters at X, in order, P23837 (parent)", "chain": "MKKLLRLFFPLSLRVRFLLATAAVVLVLSLAYGMVALIGYSVSFDKTTFRLLRGESNLFYTLAKWENNKLHVELPENIDKQSPTMTLIYDENGQLLWAQRDVPWLMKMIQPDWLKSNGFHEIEADVNDTSLLLSGDHSIQQQLQEVREDDDDAEMTHSVAVNVYPATSRMPKLTIVVVDTIPVELKSSYMVWSWFIYVLSANLLLVIPLLWVAAWWSLRPIEALAKEVRELEEHNRELLNPATTRELTSLVRNLNRLLKSERERYDKYRTTLTDLTHSLKTPLXXLQXXLRSLRSEKMSVSDAEPVMLEQISRISQQIGYYLHRASMRGGTLLSRELHPVAPLLDNLTSALNKVYQRKGVNISLDISPEISFVGEQNDFVEVMGNVLDNACKYCLEFVEISARQTDEHLYIVVEDDGPGIPLSKREVIFDRGQRVDTLRPGQGVGLAVAREITEQYEGKIVAGESMLGGARMEVIFGRQHSAPKDE"}},
  "note": "The list shows a part of the results.",
  "data": [
    {"variants_of": "B1", "test": "enrichment ratio after two sorts for PhoP signalling (ratio (wild type AVST 3.29)); higher = more functional", "settings": "with PhoP (E. coli)", "values": [
      {"variant": "LWHT", "enrichment ratio": "≤ 0.25"},
      {"variant": "IDNQ", "enrichment ratio": "≤ 0.25"},
      {"variant": "QHSH", "enrichment ratio": "≤ 0.25"},
      {"variant": "TSVY", "enrichment ratio": 1.5},
      {"variant": "HQLT", "enrichment ratio": "≤ 0.25"},
      {"variant": "SQRM", "enrichment ratio": "≤ 0.25"},
      {"variant": "REHY", "enrichment ratio": "≤ 0.25"},
      {"variant": "EQPK", "enrichment ratio": "≤ 0.25"},
      {"variant": "DGAH", "enrichment ratio": "≤ 0.25"},
      {"variant": "GQFK", "enrichment ratio": "≤ 0.25"},
      {"variant": "GMCR", "enrichment ratio": "≤ 0.25"},
      {"variant": "PCAA", "enrichment ratio": "≤ 0.25"},
      {"variant": "TYNM", "enrichment ratio": 4.53},
      {"variant": "AKEE", "enrichment ratio": "≤ 0.25"},
      {"variant": "IGQH", "enrichment ratio": "≤ 0.25"},
      {"variant": "KFLN", "enrichment ratio": "≤ 0.25"},
      {"variant": "YWGH", "enrichment ratio": "≤ 0.25"},
      {"variant": "AASG", "enrichment ratio": 8},
      {"variant": "PEYQ", "enrichment ratio": "≤ 0.25"},
      {"variant": "GEQT", "enrichment ratio": "≤ 0.25"},
      {"variant": "LGYT", "enrichment ratio": "≤ 0.25"},
      {"variant": "SWLI", "enrichment ratio": "≤ 0.25"},
      {"variant": "HHTF", "enrichment ratio": "≤ 0.25"},
      {"variant": "EFYN", "enrichment ratio": "≤ 0.25"},
      {"variant": "YWTQ", "enrichment ratio": "≤ 0.25"},
      {"variant": "DDDD", "enrichment ratio": "≤ 0.25"},
      {"variant": "SPYQ", "enrichment ratio": "≤ 0.25"},
      {"variant": "TARD", "enrichment ratio": 0.665},
      {"variant": "LSKP", "enrichment ratio": "≤ 0.25"},
      {"variant": "ISYW", "enrichment ratio": "≤ 0.25"},
      {"variant": "PKTG", "enrichment ratio": "≤ 0.25"},
      {"variant": "PKFP", "enrichment ratio": "≤ 0.25"},
      {"variant": "VCMT", "enrichment ratio": "≤ 0.25"},
      {"variant": "DECL", "enrichment ratio": "≤ 0.25"},
      {"variant": "WYHP", "enrichment ratio": "≤ 0.25"},
      {"variant": "ICGC", "enrichment ratio": "≤ 0.25"},
      {"variant": "VPMN", "enrichment ratio": "≤ 0.25"},
      {"variant": "GYCN", "enrichment ratio": "≤ 0.25"},
      {"variant": "ELYL", "enrichment ratio": "≤ 0.25"},
      {"variant": "PMLD", "enrichment ratio": "≤ 0.25"},
      {"variant": "WGRR", "enrichment ratio": "≤ 0.25"},
      {"variant": "YMLD", "enrichment ratio": "≤ 0.25"},
      {"variant": "NWCT", "enrichment ratio": "≤ 0.25"},
      {"variant": "NDID", "enrichment ratio": "≤ 0.25"},
      {"variant": "HCVK", "enrichment ratio": "≤ 0.25"},
      {"variant": "SDIL", "enrichment ratio": 8.57},
      {"variant": "APNP", "enrichment ratio": "≤ 0.25"},
      {"variant": "FPLT", "enrichment ratio": "≤ 0.25"},
      {"variant": "DAER", "enrichment ratio": "≤ 0.25"},
      {"variant": "WWYY", "enrichment ratio": "≤ 0.25"},
      {"variant": "NYQL", "enrichment ratio": "≤ 0.25"},
      {"variant": "FVED", "enrichment ratio": "≤ 0.25"},
      {"variant": "ITRW", "enrichment ratio": "≤ 0.25"},
      {"variant": "PNWR", "enrichment ratio": "≤ 0.25"},
      {"variant": "HIYM", "enrichment ratio": "≤ 0.25"},
      {"variant": "STIE", "enrichment ratio": "≤ 0.25"},
      {"variant": "NACH", "enrichment ratio": "≤ 0.25"},
      {"variant": "PWLN", "enrichment ratio": "≤ 0.25"},
      {"variant": "PLYG", "enrichment ratio": "≤ 0.25"},
      {"variant": "HIYS", "enrichment ratio": "≤ 0.25"},
      {"variant": "ITGN", "enrichment ratio": "≤ 0.25"},
      {"variant": "RVIP", "enrichment ratio": "≤ 0.25"},
      {"variant": "TQMG", "enrichment ratio": 32.5},
      {"variant": "YHGQ", "enrichment ratio": "≤ 0.25"},
      {"variant": "IDLS", "enrichment ratio": "≤ 0.25"},
      {"variant": "TLGK", "enrichment ratio": "≤ 0.25"},
      {"variant": "SGEG", "enrichment ratio": "≤ 0.25"},
      {"variant": "INNW", "enrichment ratio": "≤ 0.25"},
      {"variant": "MSPS", "enrichment ratio": "≤ 0.25"},
      {"variant": "NCFM", "enrichment ratio": "≤ 0.25"},
      {"variant": "PICG", "enrichment ratio": "≤ 0.25"},
      {"variant": "ENRK", "enrichment ratio": "≤ 0.25"},
      {"variant": "WIIG", "enrichment ratio": "≤ 0.25"},
      {"variant": "GEAI", "enrichment ratio": 9.37},
      {"variant": "STCM", "enrichment ratio": 13.3},
      {"variant": "SWIN", "enrichment ratio": "≤ 0.25"},
      {"variant": "LGHL", "enrichment ratio": 2.13},
      {"variant": "FTLI", "enrichment ratio": 10.3},
      {"variant": "QECK", "enrichment ratio": 1.71},
      {"variant": "RVKM", "enrichment ratio": "≤ 0.25"},
      {"variant": "SIYD", "enrichment ratio": "≤ 0.25"},
      {"variant": "PRMM", "enrichment ratio": "≤ 0.25"},
      {"variant": "WIAF", "enrichment ratio": "≤ 0.25"},
      {"variant": "EYCE", "enrichment ratio": "≤ 0.25"}
    ]}
  ]
}
